The list shows a part of the results. These are noisy estimates, calculated here from bound and input reads.
target: T1, Pho4 (S. cerevisiae) (UniProt P07270); test: relative binding free energy (BET-seq); higher = weaker binding; details: reference: library average
T1 sequence: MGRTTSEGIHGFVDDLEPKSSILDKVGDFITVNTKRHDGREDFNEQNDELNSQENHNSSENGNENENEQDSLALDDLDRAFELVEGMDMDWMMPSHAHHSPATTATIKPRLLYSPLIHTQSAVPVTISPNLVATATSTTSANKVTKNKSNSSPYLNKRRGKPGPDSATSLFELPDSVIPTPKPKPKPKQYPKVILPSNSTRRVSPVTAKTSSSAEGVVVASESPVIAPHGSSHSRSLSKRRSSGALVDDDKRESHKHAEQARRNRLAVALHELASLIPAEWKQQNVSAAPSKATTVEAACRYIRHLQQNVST

Sequence | relative binding free energy [kcal/mol]
GGATACACGTGGTTTA | -0.01
TTTTCCACGTGGTTGG | 0.01
TGTGCCACGTGCAAGG | -0.09
GGGCTCACGTGAGTAT | 0.41
GGTCACACGTGCTTTG | 0.23
AGTGGCACGTGTGGAA | 0.04
AAGGGCACGTGGAGAT | 0.02
TTGGTCACGTGTTGTG | 0.18
TGATTCACGTGCGGGA | 0.14
ATTGGCACGTGGTCTT | -0.16
AGTAACACGTGGAATA | 0.21
TGATGCACGTGTGATA | 0
CGTGGCACGTGGTGTA | -0.2
TATGGCACGTGTGTTG | -0.03
CTTAGCACGTGAGGGG | 0.17
ACAATCACGTGGTTAG | 0.25
GGTTACACGTGTAGTC | 0.07
ATTATCACGTGGTAGT | 0.04
TCATGCACGTGAATGT | 0.33

Sequence | relative binding free energy [kcal/mol]
TTTTACACGTGTTAGT | 0.29
TTATACACGTGATGCG | 0.03
CGTTACACGTGGTTGG | 0
TGTCTCACGTGTTTGG | 0.14
TTATGCACGTGAAATT | 0.27
TGTCCCACGTGGTTTT | -0.1
CGTATCACGTGATATG | 0.24
TCACTCACGTGTGTGT | 0.31
GATTACACGTGTGCGT | 0.25
ATTGTCACGTGTATTC | -0.02
GTCTTCACGTGTTCGG | 0.33
ATATTCACGTGAAGGA | 0.27
TTCCTCACGTGTAGGT | 0.11
TACTGCACGTGTGAGT | -0.01
TAGAGCACGTGACTGG | -0.03
GGCAGCACGTGTGCGG | 0
TTATGCACGTGGGGAA | -0.05
TGTTACACGTGGCTAG | 0.03
AAGCTCACGTGGTGGG | 0.08

Sequence | relative binding free energy [kcal/mol]
GGTGTCACGTGAGGGG | 0.3
GAAGGCACGTGGTGAG | -0.23
TGGTTCACGTGAAAGC | 0.35
CGTATCACGTGGTGAG | 0.05
GCTAGCACGTGTCGTT | 0.14
TTGGGCACGTGGGCAG | -0.19
ATTTTCACGTGGCTTA | 0.22
TCTAGCACGTGGGTGT | -0.21
GGCATCACGTGGTAAG | 0.07
GCGTGCACGTGGGCGT | -0.19
CAAATCACGTGTGTTG | 0.19
ACGTGCACGTGTGTAG | 0.05
TGGAACACGTGTCGGG | 0.11
TTTAACACGTGTTAGC | -0.01
GGGATCACGTGTATTT | 0.23
AGGGGCACGTGGTGGA | -0.2
CTATGCACGTGGTATG | -0.12
GGTTACACGTGCATGG | 0.17
ATGTACACGTGGGACG | 0.02

Source: the BET-seq Pho4 binding data (Le et al. 2018)
